The other results are listed elsewhere or left out.
Tests used:
HSkMC = human skeletal muscle cells; experiment: cytotoxicity call (relative viability < 0.9); conditions: 10 µM
S. aureus RN4220 = experiment: growth inhibition call (relative growth <= 0.2); conditions: 50 µM

CN1C(=O)c2cc(NC(=O)c3cccs3)ccc2OC[C@H]2O[C@@H](CC(=O)NCCN3CCCCC3)CC[C@@H]21
cytotoxicity call (HSkMC): inactive
growth inhibition call (S. aureus RN4220): inactive

C[C@H]1CN([C@@H](C)CO)C(=O)c2cccc(NS(C)(=O)=O)c2O[C@H]1CN(C)S(=O)(=O)c1cccs1
cytotoxicity call (HSkMC): inactive
growth inhibition call (S. aureus RN4220): inactive

C[C@H](CO)N1C[C@H](C)[C@H](CN(C)Cc2ccc(Cl)c(Cl)c2)Oc2ccc(NS(=O)(=O)c3ccc(F)cc3)cc2C1=O
cytotoxicity call (HSkMC): inactive
growth inhibition call (S. aureus RN4220): inactive

C[C@@H]1CCCCO[C@@H](CN(C)C(=O)CCC(F)(F)F)[C@@H](C)CN([C@H](C)CO)C(=O)c2cc(NC(=O)Cc3ccccc3)ccc2O1
cytotoxicity call (HSkMC): inactive
growth inhibition call (S. aureus RN4220): inactive

C[C@@H]1CN([C@H](C)CO)C(=O)c2cc(NC(=O)CCC(F)(F)F)ccc2O[C@@H](C)CCCCO[C@@H]1CN(C)S(=O)(=O)c1ccc(Cl)cc1
cytotoxicity call (HSkMC): inactive
growth inhibition call (S. aureus RN4220): inactive

C[C@@H]1CCCCO[C@@H](CN(C)C(=O)Nc2cccc3ccccc23)[C@@H](C)CN([C@H](C)CO)C(=O)c2cc(NC(=O)Nc3ccc(C(F)(F)F)cc3)ccc2O1
cytotoxicity call (HSkMC): active
growth inhibition call (S. aureus RN4220): inactive

C[C@H](CO)N1C[C@H](C)[C@H](CN(C)C(=O)CCC(F)(F)F)OCCCC[C@H](C)Oc2ccc(NC(=O)CCC(F)(F)F)cc2C1=O
cytotoxicity call (HSkMC): inactive
growth inhibition call (S. aureus RN4220): inactive
